Test results: PubChem BioAssay AID1259400 (National Center for Advancing Translational Sciences (NCATS), 2018)
Several values for one entry are separate records, joined by “and”; a condition that tells them apart may be missing. Equal entries are not always repeated. About 2,100 (0.6%) of roughly 350,000 compounds were called active. This list was built around the results that the source calls inconclusive (neither active nor inactive); the mix of calls is not that of the screen.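 The calls were made as follows: active = activity change of -60% or lower, but not beyond a set lower limit; inconclusive = change between -60% and -40%, or beyond the set limit; inactive = change above -40%.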

These molecules were tested against Relaxin receptor 1 (Homo sapiens) (UniProt Q9HBX9) (assay: qHTS Assay for Antagonists of the Relaxin Receptor RXFP1). Conditions: HEK293-RXFP1, relaxin-stimulated cAMP HTRF, 30 min; at 57.5 µM; active compounds read low.
% is scaled to controls: 0 for no effect and ±100 for the full control effect.

Sequence of UniProt Q9HBX9 (Q9HBX9 whole entry, looked up): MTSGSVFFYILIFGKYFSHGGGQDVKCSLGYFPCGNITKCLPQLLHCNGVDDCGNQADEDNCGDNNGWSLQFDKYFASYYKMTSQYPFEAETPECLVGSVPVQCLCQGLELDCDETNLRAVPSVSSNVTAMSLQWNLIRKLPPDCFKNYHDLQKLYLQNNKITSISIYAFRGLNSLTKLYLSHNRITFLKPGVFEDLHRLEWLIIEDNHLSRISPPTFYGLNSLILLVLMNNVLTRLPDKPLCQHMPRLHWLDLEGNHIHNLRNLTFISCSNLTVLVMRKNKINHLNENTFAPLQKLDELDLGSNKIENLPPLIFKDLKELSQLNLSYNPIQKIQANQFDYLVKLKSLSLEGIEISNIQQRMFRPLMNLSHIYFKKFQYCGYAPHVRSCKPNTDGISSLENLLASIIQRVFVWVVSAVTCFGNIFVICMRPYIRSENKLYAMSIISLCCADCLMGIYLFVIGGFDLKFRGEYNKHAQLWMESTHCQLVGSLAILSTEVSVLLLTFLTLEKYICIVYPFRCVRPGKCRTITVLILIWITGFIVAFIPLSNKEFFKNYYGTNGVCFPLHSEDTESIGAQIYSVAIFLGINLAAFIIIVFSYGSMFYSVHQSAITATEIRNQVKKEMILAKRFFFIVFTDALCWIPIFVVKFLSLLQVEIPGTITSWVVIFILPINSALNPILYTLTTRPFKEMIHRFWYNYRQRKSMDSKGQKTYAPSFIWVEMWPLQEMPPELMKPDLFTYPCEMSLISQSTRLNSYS

Structure (SMILES)	activity change, negative = inhibition
CCN(CC)c1ccc(C(=O)NCc2ccc3c(c2)CCN3C(C)=O)cc1	inactive: 0.846%
OCCC1CN(Cc2cccc(C(F)(F)F)c2)CCN1Cc1ccccc1 (stereo unspecified)	inactive: -16.6%
Cc1ccc(OCCSCc2nc3ccccc3[nH]2)cc1	inactive: -4.31%
CCCCOc1ccc(C(=O)NCCS(=O)(=O)N2CCN(c3ccccc3OC)CC2)cc1	inconclusive: -42.1%
CCCCc1ccc(NC(=S)N2CCN(c3ccccn3)CC2)cc1	active: -68.7%
O=C(Nc1cccc(C(=O)N2CCN(c3ccccc3)CC2)c1)c1nsc2ccccc12	inactive: -22.3%
CCn1c(-c2ccccc2)csc1=Nc1ccc(O)cc1	inconclusive: -51.6%
CCC(C)N=C1Sc2nc3ccc(C)cc3cc2CN1CCOC (stereo unspecified)	inconclusive: -49.4%
COc1ccc(-c2nnc(OCc3ccccc3)c3ccccc23)cc1	inconclusive: -48.6%
CCOC(=O)c1ccc(NC(=O)c2nn(C)cc2Br)cc1	inactive: -1.16%
O=C1N/C(=N/NC(=O)c2cccc3ccccc23)S/C1=C\c1ccccc1OCc1ccccc1	inconclusive: -48%
COc1ccc(OC)c(NC(=O)CSc2nnc(C3CCCCC3)n2N)c1	inconclusive: -40.5%
CCOC(=O)C1CCN(C(=O)c2ccc3c(=O)n4nc(Nc5ccccc5)sc4nc3c2)CC1	inactive: -0.361% and inactive: 4.19%
Cc1cccc(CCNS(=O)(=O)c2ccc(S(=O)(=O)N3CCC(C)CC3)cc2)c1	inactive: 3.38%
COC(=O)c1c(NC(=O)c2ccoc2C)sc2c1CCC2	inactive: 2.79%
Cc1cc(-c2ccc(C(C)C)c(S(=O)(=O)Nc3cc(C)on3)c2)on1	active: -65.2%
Nc1c(S(=O)(=O)c2ccccc2)c2nc3ccccc3nc2n1/N=C/c1cccc(O)c1	inactive: -8.56%
Cc1ccc(CCNC(=O)c2ccc(CSCc3ccc(C)cc3)o2)cc1	inconclusive: -48.6%
Cc1ccc(C(C(=O)NCC2CCCO2)N(C(=O)c2snc(C(N)=O)c2N)c2ccc(C)c(C)c2)o1 (stereo unspecified)	active: -76.3%

Structure (SMILES)	activity change, negative = inhibition
COc1ccc(C(=O)c2cn(Cc3cccc(C)c3)c3cc4c(cc3c2=O)OCCO4)cc1OC	active: -81.5%
COc1ccc(NC(=O)/C(Cl)=C(/Cl)S(=O)Cc2ccccc2)cn1 (stereo unspecified)	active: -72.5%
Cc1c(NS(=O)(=O)c2cccc(C(=O)NCc3ccccc3)c2)c(=O)n(-c2ccccc2)n1C	inconclusive: -40.7%
Oc1ccc(Nc2nc(-c3ccc(Cl)cc3)nc3ccccc23)cc1	inconclusive: -48.7%
Cc1cccc(-n2ncc3c(Nc4c(C)cc(C)cc4C)ncnc32)c1	inconclusive: -47.3%
O=C(C#Cc1ccccc1)c1ccco1	inconclusive: -58%
COc1ccc(C(CCNC(C)c2ccccc2)C(C)C)cc1 (stereo unspecified)	inconclusive: -43.3%
S=c1[nH]nc(-c2cccs2)n1/N=C/c1cn(-c2ccccc2)nc1-c1ccccc1	inconclusive: -44.7%
CCN(CCCNc1cc2c(c(N)c1S(=O)(=O)O)C(=O)c1ccccc1C2=O)c1ccccc1	inconclusive: -41.1%
CCOC(=O)C1=NN(C(=O)c2ccccc2)C(O)(c2ccc(C)cc2)C1 (stereo unspecified)	inconclusive: -43.3%
O=C(Nc1ccccc1N1CCOCC1)c1ccccc1NS(=O)(=O)c1ccc(F)cc1	inconclusive: -42.3%
O=C(N/N=C/c1ccco1)c1cc(-c2ccc(Br)s2)[nH]n1	inconclusive: -51.6%
Cc1cc([N+](=O)[O-])cc(/C=N/n2c(C)nc3ccccc3c2=O)c1O	inconclusive: -53.5%
COc1ccc(C2CC(c3ccc4ccccc4c3)=NN2C(=O)COC(=O)C2CCC(=O)N2)cc1 (stereo unspecified)	inconclusive: -43.1%
c1ccc2nc(N3CCCC3)c(N3CCCCC3)nc2c1	inconclusive: -58.5%
O=C(COc1ccccc1Br)NC(=O)NC1CCCC1	inconclusive: -44.3%
COc1ccccc1CNCc1cc(Br)ccc1OC	inconclusive: -54.9%
N#C/C(=C\c1c(Cl)cccc1Cl)c1nn(-c2ccccc2)c(-n2cccc2)c1C#N	inconclusive: -47%
Cc1ccc(S(=O)(=O)NCCC(=O)N2CCN(S(=O)(=O)c3cccc(F)c3)CC2)cc1C	active: -67%

Structure (SMILES)	activity change, negative = inhibition
CC(=O)C1=C(c2ccc(Cl)c(Cl)c2)N(C(C)=O)n2c(C)nnc2S1	active: -84.4%
S=C(Nc1cccc(Br)c1)N1CCn2cccc2C1c1cccnc1 (stereo unspecified)	inconclusive: -52.6%
CN(C)c1ccc(C(O)P(=O)(OC2CCCCC2)OC2CCCCC2)cc1 (stereo unspecified)	inconclusive: -47.4%
c1ccc2nc(N3CCCC3)c(N3CCCC3)nc2c1	inconclusive: -55.4%
Cc1nc(N2CCCCC2)c2c(-c3cccs3)csc2n1	inconclusive: -56.3%
C(C#CCCCCCCCCC[n+]1ccccc1)#CCCCCCCCCC[n+]1ccccc1	inconclusive: -56.2%
Cc1ccsc1/C=C(\C(=O)c1ccc(OC(C)C)cc1)c1nc2ccccc2o1	inconclusive: -54.1%
CCOc1ccccc1NC(=O)c1cc(S(=O)(=O)NCc2ccco2)ccc1F	inconclusive: -40.7%
O=C(Nc1ccc(Cl)cc1)Nc1ccc(Cl)c(C(F)(F)F)c1	active: -92.5%
Cc1ccccc1OCCN1CCC(Cc2ccccc2)CC1	inactive: -17.4%
CCCC(=O)NC(c1ccc(Cl)cc1Cl)c1ccc2cccnc2c1O (stereo unspecified)	active: -61.6%
COc1ccc(NC(=O)Nc2ccc(F)cc2)c(C)c1	inactive: 3.71%
COc1ccc2c(CNCCc3ccccc3)c(C(=O)O)n(Cc3cccc(F)c3)c2c1	inactive: -17.7%
CCOc1ccc(CN2CCN(Cc3cccc4nonc34)CC2CCO)cc1 (stereo unspecified)	inactive: -24%
O=[N+]([O-])c1cc(/C=N\Nc2nc(-c3ccccc3)cs2)ccc1O	active: -65.4%
COc1ccc([N+](=O)[O-])cc1NCc1cccnc1	inconclusive: -40.1%
O=C(NC(=S)N1CCc2ccccc21)c1ccc(Br)o1	inconclusive: -49.3%
COc1ccc(C(=O)/C=C/C(=O)N(CC(=O)NC2CCCCC2)Cc2ccccc2)c(O)c1	active: -64.2%
